Sequences and labels used below:
B1: TEV protease; numbered along this chain (parent)
chain: MGESLFKGPRDYNPISSSICHLTNESDGHTTSLYGIGFGPFIITNKHLFRRNNGTLVVQSLHGVFKVKDTTTLQQHLVDGRDMIIIRMPKDFPPFPQKLKFREPQREERICLVTTNFQTKSMSSMVSDTSCTFPSGDGIFWKHWIQTKDGQCGSPLVSTRDGFIVGIHSASNFTNTNNYFTSVPKNFMELLTNQEAQQWVSGWRLNADSVLWGGHKVFMVKPEEPFQPVKEATQL

The other results are listed elsewhere or left out. The full chains were built here from the parent and the listed change. Inactive controls read about 0.05.

This assay covers variants of B1. The assay can be described thus: raw area under fraction-flipped curve 0-4 h after induction (AUC4h, not background-subtracted), DNA-recorder readout of cleavage of the substrate (dimensionless); higher = more cleavage of the substrate by the protease variant. As to conditions: temperature: 34 °C; time window: 0-4 h after rhamnose induction. The protocol: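 In vivo DNA recorder in E. coli TOP10(DE3) ΔrhaA at 34 °C. Each TEVp single-site mutant (parent TEVp 0) is paired with a single-site variant of the 7-mer TEVs (canonical ENLYFQ|S). The substrate sits between flexible linkers in a Bxb1-sfGFP-TEVs-SsrA fusion, so cleavage stabilises Bxb1 and speeds flipping of a recombination array, read by NGS. The value is the raw area under the fraction-flipped curve over 0-4 h after rhamnose induction (AUC4h), with ≥20 reads per time point. It is not background-subtracted; inactive controls average about 0.047.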
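Further: Bxb1 expression induced with 0.2% (w/v) L-rhamnose at OD600 near 0.5, cultures sampled hourly, flipped fraction per protease–substrate barcode pair counted by paired-end Illumina sequencing.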

Consider MGESLFKGPRDYNPISSSICHLTNESDGHTTSLYGIGFGPFIITNKHLFRRNSGTLVVQSLHGVFKVKDTTTLQQHLVDGRDMIIIRMPKDFPPFPQKLKFREPQREERICLVTTNFQTKSMSSMVSDTSCTFPSGDGIFWKHWIQTKDGQCGSPLVSTRDGFIVGIHSASNFTNTNNYFTSVPKNFMELLTNQEAQQWVSGWRLNADSVLWGGHKVFMVKPEEPFQPVKEATQL [N53S], for which the “area with substrate CNLYFQS” value stood at 0.0647, the “area with substrate DNLYFQS” value turned out to be 0.0864, the “area with substrate FNLYFQS” value was determined as 0.0512 and the “area with substrate HNLYFQS” value came out at 0.0688. Also, the “area with substrate INLYFQS” value came out at 0.0564, the “area with substrate KNLYFQS” value worked out at 0.0624, the “area with substrate LNLYFQS” value was 0.0632 and the “area with substrate NNLYFQS” value was 0.0828. For the same variant, the “area with substrate PNLYFQS” value is 0.0623, the “area with substrate RNLYFQS” value is 0.0804, the “area with substrate SNLYFQS” value came to 0.0681 and the “area with substrate TNLYFQS” value turned out to be 0.0601. Further, the “area with substrate WNLYFQS” value turned out to be 0.0563 and the “area with substrate YNLYFQS” value stood at 0.0757.

MGESLFKGPRDYNPISSSICHLTNESDGHTTSLYGIGFGPFIITNKHLFRRNMGTLVVQSLHGVFKVKDTTTLQQHLVDGRDMIIIRMPKDFPPFPQKLKFREPQREERICLVTTNFQTKSMSSMVSDTSCTFPSGDGIFWKHWIQTKDGQCGSPLVSTRDGFIVGIHSASNFTNTNNYFTSVPKNFMELLTNQEAQQWVSGWRLNADSVLWGGHKVFMVKPEEPFQPVKEATQL [N53M]: the “area with substrate CNLYFQS” value came out at 0.0668, the “area with substrate DNLYFQS” value turned out to be 0.0537, the “area with substrate FNLYFQS” value stood at 0.0622 and the “area with substrate GNLYFQS” value stood at 0.0783. Further, the “area with substrate HNLYFQS” value was 0.056, the “area with substrate INLYFQS” value was determined as 0.0597, the “area with substrate LNLYFQS” value is 0.0592 and the “area with substrate MNLYFQS” value came out at 0.0635. The “area with substrate NNLYFQS” value was found to be 0.0515, the “area with substrate PNLYFQS” value was 0.077, the “area with substrate SNLYFQS” value stood at 0.0652 and the “area with substrate TNLYFQS” value came out at 0.0148. The “area with substrate VNLYFQS” value came out at 0.0638, the “area with substrate WNLYFQS” value came to 0.0496 and the “area with substrate YNLYFQS” value came out at 0.0629.

In the case of MGESLFKGPRDYNPISSSICHLTNESDGHTTSLYGIGFGPFIITNKHLFRRNNGSLVVQSLHGVFKVKDTTTLQQHLVDGRDMIIIRMPKDFPPFPQKLKFREPQREERICLVTTNFQTKSMSSMVSDTSCTFPSGDGIFWKHWIQTKDGQCGSPLVSTRDGFIVGIHSASNFTNTNNYFTSVPKNFMELLTNQEAQQWVSGWRLNADSVLWGGHKVFMVKPEEPFQPVKEATQL [T55S], the “area with substrate CNLYFQS” value turned out to be 0.0741, the “area with substrate DNLYFQS” value turned out to be 0.0877, the “area with substrate FNLYFQS” value worked out at 0.0574 and the “area with substrate HNLYFQS” value stood at 0.0697. In addition, the “area with substrate KNLYFQS” value worked out at 0.0638, the “area with substrate LNLYFQS” value amounted to 0.0596, the “area with substrate NNLYFQS” value came out at 0.0766 and the “area with substrate SNLYFQS” value is 0.074. Moreover, the “area with substrate TNLYFQS” value amounted to 0.057, the “area with substrate VNLYFQS” value was 0.069 and the “area with substrate YNLYFQS” value is 0.0655.

As to MGESLFKGPRDYNPISSSICHLTNESDGHTTSLYGIGFGPFIITNKHLFRRNNGTLVVISLHGVFKVKDTTTLQQHLVDGRDMIIIRMPKDFPPFPQKLKFREPQREERICLVTTNFQTKSMSSMVSDTSCTFPSGDGIFWKHWIQTKDGQCGSPLVSTRDGFIVGIHSASNFTNTNNYFTSVPKNFMELLTNQEAQQWVSGWRLNADSVLWGGHKVFMVKPEEPFQPVKEATQL [Q59I], the “area with substrate CNLYFQS” value worked out at 0.08, the “area with substrate DNLYFQS” value is 0.0768, the “area with substrate GNLYFQS” value came to 0.0868 and the “area with substrate LNLYFQS” value stood at 0.0866. Besides, the “area with substrate MNLYFQS” value was determined as 0.0759, the “area with substrate NNLYFQS” value was 0.0447, the “area with substrate PNLYFQS” value turned out to be 0.0385 and the “area with substrate TNLYFQS” value was found to be 0.0901. The “area with substrate WNLYFQS” value was determined as 0.0623.

Take MGESLFKGPRDYNPISSSICHLTNESDGHTTSLYGIGFGPFIITNKHLFRRNNGTLVVQSWHGVFKVKDTTTLQQHLVDGRDMIIIRMPKDFPPFPQKLKFREPQREERICLVTTNFQTKSMSSMVSDTSCTFPSGDGIFWKHWIQTKDGQCGSPLVSTRDGFIVGIHSASNFTNTNNYFTSVPKNFMELLTNQEAQQWVSGWRLNADSVLWGGHKVFMVKPEEPFQPVKEATQL [L61W]: the “area with substrate CNLYFQS” value came to 0.0601, the “area with substrate DNLYFQS” value came to 0.0841, the “area with substrate FNLYFQS” value worked out at 0.057 and the “area with substrate GNLYFQS” value is 0.0688. The “area with substrate HNLYFQS” value was 0.0559, the “area with substrate INLYFQS” value was 0.0544, the “area with substrate KNLYFQS” value was found to be 0.0649 and the “area with substrate MNLYFQS” value turned out to be 0.0606. For the same variant, the “area with substrate NNLYFQS” value amounted to 0.0504, the “area with substrate PNLYFQS” value came out at 0.0439, the “area with substrate TNLYFQS” value was found to be 0.0822 and the “area with substrate WNLYFQS” value came to 0.061. Also, the “area with substrate YNLYFQS” value turned out to be 0.0627.

Consider MGESLFKGPRDYNPISSSICHLTNESDGHTTSLYGIGFGPFIITNKHLFRRNNGTLVVQSHHGVFKVKDTTTLQQHLVDGRDMIIIRMPKDFPPFPQKLKFREPQREERICLVTTNFQTKSMSSMVSDTSCTFPSGDGIFWKHWIQTKDGQCGSPLVSTRDGFIVGIHSASNFTNTNNYFTSVPKNFMELLTNQEAQQWVSGWRLNADSVLWGGHKVFMVKPEEPFQPVKEATQL [L61H], for which the “area with substrate CNLYFQS” value turned out to be 0.0659, the “area with substrate DNLYFQS” value was determined as 0.0864, the “area with substrate FNLYFQS” value was determined as 0.0577 and the “area with substrate GNLYFQS” value was 0.0683. The “area with substrate HNLYFQS” value was determined as 0.0646, the “area with substrate LNLYFQS” value was 0.0543, the “area with substrate NNLYFQS” value came out at 0.0613 and the “area with substrate PNLYFQS” value was 0.0735. Besides, the “area with substrate QNLYFQS” value was found to be 0.0731, the “area with substrate SNLYFQS” value is 0.0655, the “area with substrate TNLYFQS” value came out at 0.0648 and the “area with substrate WNLYFQS” value worked out at 0.0715. The “area with substrate YNLYFQS” value was found to be 0.0753.

As to MGESLFKGPRDYNPISSSICHLTNESDGHTTSLYGIGFGPFIITNKHLFRRPNGTLVVQSLHGVFKVKDTTTLQQHLVDGRDMIIIRMPKDFPPFPQKLKFREPQREERICLVTTNFQTKSMSSMVSDTSCTFPSGDGIFWKHWIQTKDGQCGSPLVSTRDGFIVGIHSASNFTNTNNYFTSVPKNFMELLTNQEAQQWVSGWRLNADSVLWGGHKVFMVKPEEPFQPVKEATQL [N52P], the “area with substrate CNLYFQS” value is 0.0604, the “area with substrate DNLYFQS” value is 0.0501, the “area with substrate HNLYFQS” value was determined as 0.0627 and the “area with substrate INLYFQS” value was 0.0552. For the same variant, the “area with substrate LNLYFQS” value was determined as 0.0578, the “area with substrate PNLYFQS” value is 0.0481, the “area with substrate SNLYFQS” value is 0.059 and the “area with substrate TNLYFQS” value came out at 0.0634. Further, the “area with substrate YNLYFQS” value was determined as 0.0533.

As to MGESLFKGPRDYNPISSSICHLTNESDGHTTSLYGIGFGPFIITNKHLFRRVNGTLVVQSLHGVFKVKDTTTLQQHLVDGRDMIIIRMPKDFPPFPQKLKFREPQREERICLVTTNFQTKSMSSMVSDTSCTFPSGDGIFWKHWIQTKDGQCGSPLVSTRDGFIVGIHSASNFTNTNNYFTSVPKNFMELLTNQEAQQWVSGWRLNADSVLWGGHKVFMVKPEEPFQPVKEATQL [N52V], the “area with substrate CNLYFQS” value was 0.0727, the “area with substrate DNLYFQS” value is 0.0269, the “area with substrate FNLYFQS” value was 0.0466 and the “area with substrate GNLYFQS” value was found to be 0.0547. In addition, the “area with substrate HNLYFQS” value came to 0.0637, the “area with substrate KNLYFQS” value came to 0.068, the “area with substrate LNLYFQS” value turned out to be 0.0686 and the “area with substrate MNLYFQS” value came out at 0.054. In addition, the “area with substrate NNLYFQS” value was 0.0544, the “area with substrate PNLYFQS” value worked out at 0.0599, the “area with substrate QNLYFQS” value is 0.0692 and the “area with substrate RNLYFQS” value amounted to 0.0556. Besides, the “area with substrate SNLYFQS” value is 0.0655, the “area with substrate TNLYFQS” value is 0.0632, the “area with substrate VNLYFQS” value came to 0.063 and the “area with substrate WNLYFQS” value turned out to be 0.0594. In addition, the “area with substrate YNLYFQS” value came to 0.0655.

Turning to MGESLFKGPRDYNPISSSICHLTNESDGHTTSLYGIGFGPFIITNKHLFRRCNGTLVVQSLHGVFKVKDTTTLQQHLVDGRDMIIIRMPKDFPPFPQKLKFREPQREERICLVTTNFQTKSMSSMVSDTSCTFPSGDGIFWKHWIQTKDGQCGSPLVSTRDGFIVGIHSASNFTNTNNYFTSVPKNFMELLTNQEAQQWVSGWRLNADSVLWGGHKVFMVKPEEPFQPVKEATQL [N52C], the “area with substrate CNLYFQS” value stood at 0.0469, the “area with substrate DNLYFQS” value worked out at 0.0558, the “area with substrate FNLYFQS” value came to 0.033 and the “area with substrate GNLYFQS” value was found to be 0.0579. Further, the “area with substrate HNLYFQS” value turned out to be 0.0627, the “area with substrate KNLYFQS” value was 0.0589, the “area with substrate LNLYFQS” value was determined as 0.0653 and the “area with substrate MNLYFQS” value worked out at 0.0588. In addition, the “area with substrate PNLYFQS” value was found to be 0.0518, the “area with substrate QNLYFQS” value came out at 0.0693, the “area with substrate RNLYFQS” value was determined as 0.0452 and the “area with substrate SNLYFQS” value was 0.0455. For the same variant, the “area with substrate TNLYFQS” value amounted to 0.0624, the “area with substrate WNLYFQS” value is 0.0613 and the “area with substrate YNLYFQS” value amounted to 0.0575.

Source of the values: the supplement of paper PMC12217912.
